# Test results from the supplement of paper PMC8728848.
# This is one part of the list.
# Columns and labels:
# Test in all cases: glycan array binding signal (z-score within array); higher = stronger binding
# Conditions in all cases: glycan notation: IUPAC condensed, linker removed
# [1] = target: Neu5Ac(a2-6)GlcNAc(b1-4)GlcNAc(b1-4)GlcNAc
# Method in brief: (§1)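 Glycan array data were curated from 3228 arrays in the Consortium for Functional Glycomics database and kept only where the protein sequence was available. Glycan names were converted to IUPAC-condensed notation, and columns mapping to the same glycan were averaged. The binding signal is a within-array Z-score, averaged across arrays of the same protein sequence at different concentrations or buffers and across linkers. Negative Z-scores can be read as non-binding.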
# [2] = target: Neu5Ac(a2-8)Neu5Ac
# Method in brief: as §1
# [3] = target: Neu5Ac(a2-8)Neu5Ac(a2-3)Gal(b1-3)GalNAc(b1-4)[Neu5Ac(a2-3)]Gal(b1-4)Glc
# Method in brief: as §1
# [4] = target: Neu5Ac(a2-8)Neu5Ac(a2-3)Gal(b1-3)GalNAc(b1-4)[Neu5Ac(a2-8)Neu5Ac(a2-3)]Gal(b1-4)Glc
# Method in brief: as §1
# [5] = target: Neu5Ac(a2-8)Neu5Ac(a2-3)Gal(b1-4)Glc
# Method in brief: as §1
# [6] = target: Neu5Ac(a2-8)Neu5Ac(a2-3)Gal(b1-4)GlcNAc
# Method in brief: as §1
# [7] = target: Neu5Ac(a2-8)Neu5Ac(a2-3)[Gal(b1-3)GalNAc(b1-4)]Gal(b1-4)Glc
# Method in brief: as §1
# [8] = target: Neu5Ac(a2-8)Neu5Ac(a2-3)[GalNAc(b1-4)]Gal(b1-4)Glc
# Method in brief: as §1
# [9] = target: Neu5Ac(a2-8)Neu5Ac(a2-8)Neu5Ac
# Method in brief: as §1
# [10] = target: Neu5Ac(a2-8)Neu5Ac(a2-8)Neu5Ac(a2-3)Gal(b1-4)Glc
# Method in brief: as §1
# [11] = target: Neu5Ac(a2-8)Neu5Ac(a2-8)Neu5Ac(a2-3)[Gal(b1-3)GalNAc(b1-4)]Gal(b1-4)Glc
# Method in brief: as §1
# [12] = target: Neu5Ac(a2-8)Neu5Ac(a2-8)Neu5Ac(a2-3)[GalNAc(b1-4)]Gal(b1-4)Glc
# Method in brief: as §1
# [13] = target: Neu5Ac(a2-8)Neu5Ac(a2-8)Neu5Ac(a2-8)Neu5Ac(a2-3)[GalNAc(b1-4)]Gal(b1-4)Glc
# Method in brief: as §1
# [14] = target: Neu5Ac(a2-8)Neu5Gc(a2-3)Gal(b1-4)GlcNAc
# Method in brief: as §1
# [15] = target: Neu5Ac(b2-6)Gal(b1-4)GlcNAc
# Method in brief: as §1
# [16] = target: Neu5Ac(b2-6)GalNAc
# Method in brief: as §1
# [17] = target: Neu5Ac9Ac(a2-3)Gal(b1-3)GlcNAc
# Method in brief: as §1
# [18] = target: Neu5Ac9Ac(a2-3)Gal(b1-4)GlcNAc
# Method in brief: as §1
# [19] = target: Neu5Ac9Ac(a2-6)Gal(b1-4)GlcNAc
# Method in brief: as §1
# [20] = target: Neu5Gc(a2-3)Gal(b1-3)GlcNAc
# Method in brief: as §1
# [21] = target: Neu5Gc(a2-3)Gal(b1-3)[Fuc(a1-4)]GlcNAc
# Method in brief: as §1
# [22] = target: Neu5Gc(a2-3)Gal(b1-4)Glc
# Method in brief: as §1
# [23] = target: Neu5Gc(a2-3)Gal(b1-4)GlcNAc
# Method in brief: as §1
# [24] = target: Neu5Gc(a2-3)Gal(b1-4)GlcNAc(b1-3)Gal(b1-4)GlcNAc(b1-2)Man(a1-3)[Neu5Gc(a2-3)Gal(b1-4)GlcNAc(b1-3)Gal(b1-4)GlcNAc(b1-2)Man(a1-6)]Man(b1-4)GlcNAc(b1-4)GlcNAc
# Method in brief: as §1
# [25] = target: Neu5Gc(a2-3)Gal(b1-4)[Fuc(a1-3)]GlcNAc
# Method in brief: as §1
# [26] = target: Neu5Gc(a2-6)Gal(b1-4)GlcNAc
# Method in brief: as §1
# [27] = target: Neu5Gc(a2-6)GalNAc
# Method in brief: as §1
# [28] = target: Neu5Gc(a2-8)Neu5Ac(a2-3)Gal(b1-4)GlcNAc
# Method in brief: as §1
# [29] = target: Neu5Gc(a2-8)Neu5Gc(a2-3)Gal(b1-4)GlcNAc
# Method in brief: as §1
# [30] = target: Neu5Gc(a2-8)Neu5Gc(a2-3)Gal(b1-4)GlcNAc(b1-3)Gal(b1-4)GlcNAc
# Method in brief: as §1
# [31] = target: Neu5Gc(a2-8)Neu5Gc(a2-6)Gal(b1-4)GlcNAc
# Method in brief: as §1
# [32] = target: Neu5Gc(b2-6)Gal(b1-4)GlcNAc
# Method in brief: as §1
binder,measurement,setting,value
PX15618A-bth-503-24-503 (Bacteroides thetaiotaomicron) (protein) NKSEDKLSGDDFWAQGNETNAEAFLLSIYNSFRNATMSQRPFLTYSGDMRCAPITAYSTGDKYVAYLANNDMGELRNTYPDDARGGLIMQWDVFYTAIQDANILLAEIDKVPGMDELKRSRFKAEAIFMRSLSYFFIVRAFGDVPYYTNAYNEAPLPRTNMVIVLQNCLADLQPLLDDDPGAEVLPWSYSSYSSKGIRASRGSVIALMMHINLWLVQFDAQNKEQYYRNVVSLGEELERNNGAYSLLDINRSSVIFAGGSDEGLFEIAQNINFNEIFMMNAKFSDNVSYSCLNKSMPLFCYSGDYLMTLFPMYEDDARKELWFDEKIYSTSVSSSAPKEIKKFWNIDTYGNGTITSNSGNQIVFRYAGALLLYAEALAALGTNDTKACELLNRVRNRAHASEINTSGSELMDAIFWERCRELIGEGHYYYDLVRTGKVYNRNYCMNPMTRTNFNVGAWTWPIHRNALKNNTQIGLNLFWE,glycan array binding signal (z-score),[1],0.102
same,glycan array binding signal (z-score),[2],0.041
same,glycan array binding signal (z-score),[3],-0.337
same,glycan array binding signal (z-score),[4],0.089
same,glycan array binding signal (z-score),[5],-0.284
same,glycan array binding signal (z-score),[6],-0.205
same,glycan array binding signal (z-score),[7],-0.339
same,glycan array binding signal (z-score),[8],-0.527
same,glycan array binding signal (z-score),[9],0.04
same,glycan array binding signal (z-score),[10],-0.122
same,glycan array binding signal (z-score),[11],0.016
same,glycan array binding signal (z-score),[12],-0.625
same,glycan array binding signal (z-score),[13],-0.341
same,glycan array binding signal (z-score),[14],13.7
same,glycan array binding signal (z-score),[15],0.114
same,glycan array binding signal (z-score),[16],-0.86
same,glycan array binding signal (z-score),[17],0.369
same,glycan array binding signal (z-score),[18],0.039
same,glycan array binding signal (z-score),[19],0.191
same,glycan array binding signal (z-score),[20],-0.707
same,glycan array binding signal (z-score),[21],-0.777
same,glycan array binding signal (z-score),[22],-0.471
same,glycan array binding signal (z-score),[23],0.54
same,glycan array binding signal (z-score),[24],-0.109
same,glycan array binding signal (z-score),[25],-0.832
same,glycan array binding signal (z-score),[26],-0.58
same,glycan array binding signal (z-score),[27],-0.328
same,glycan array binding signal (z-score),[28],-0.571
same,glycan array binding signal (z-score),[29],-0.269
same,glycan array binding signal (z-score),[30],-0.399
same,glycan array binding signal (z-score),[31],-0.097
same,glycan array binding signal (z-score),[32],-0.376
